For 31 molecules, binding signal results are on record in publication PMC9911399, “Two distinct binding modes provide the RNA-binding protein RbFox with extraordinary sequence specificity”.

B1: UAUUUCG (DNA:RNA)
RNA: GGGAGACCGGAAUUCAGAUUGUCCUAUUUCGUUAAAUCCCGUCGUAGCCACCA
DNA 1: CAATCTGAATTCCGGTCTCCC
DNA 2: TGGTGGCTACGACGGGATT
B2: GAUCGCA (DNA:RNA)
RNA: B1 RNA with U25G, U28C, U29G, G31A
DNA 1: CAATCTGAATTCCGGTCTCCC
DNA 2: TGGTGGCTACGACGGGATT
B3: UUCGACU (DNA:RNA)
RNA: B1 RNA with A26U, U27C, U28G, U29A, G31U
DNA 1: CAATCTGAATTCCGGTCTCCC
DNA 2: TGGTGGCTACGACGGGATT
B4: CGACUGG (DNA:RNA)
RNA: B1 RNA with U25C, A26G, U27A, U28C, C30G
DNA 1: CAATCTGAATTCCGGTCTCCC
DNA 2: TGGTGGCTACGACGGGATT
B5: ACUACGA (DNA:RNA)
RNA: B1 RNA with U25A, A26C, U28A, U29C, C30G, G31A
DNA 1: CAATCTGAATTCCGGTCTCCC
DNA 2: TGGTGGCTACGACGGGATT
B6: GCACCGA (DNA:RNA)
RNA: GGGAGACCGGAAUUCAGAUUGUCCGCACCGAUUAAAUCCCGUCGUAGCCACCA
DNA 1: CAATCTGAATTCCGGTCTCCC
DNA 2: TGGTGGCTACGACGGGATT
B7: ACCCCUG (DNA:RNA)
RNA: B6 RNA with G25A, A27C, G30U, A31G
DNA 1: CAATCTGAATTCCGGTCTCCC
DNA 2: TGGTGGCTACGACGGGATT
B8: GGGAUAC (DNA:RNA)
RNA: B6 RNA with C26G, A27G, C28A, C29U, G30A, A31C
DNA 1: CAATCTGAATTCCGGTCTCCC
DNA 2: TGGTGGCTACGACGGGATT
B9: UUAAACU (DNA:RNA)
RNA: B1 RNA with A26U, U27A, U28A, U29A, G31U
DNA 1: CAATCTGAATTCCGGTCTCCC
DNA 2: TGGTGGCTACGACGGGATT
B10: CGUGCCU (DNA:RNA)
RNA: B1 RNA with U25C, A26G, U28G, U29C, G31U
DNA 1: CAATCTGAATTCCGGTCTCCC
DNA 2: TGGTGGCTACGACGGGATT
B11: AUGGUGA (DNA:RNA)
RNA: B6 RNA with G25A, C26U, A27G, C28G, C29U
DNA 1: CAATCTGAATTCCGGTCTCCC
DNA 2: TGGTGGCTACGACGGGATT
B12: CGCCCUC (DNA:RNA)
RNA: B6 RNA with G25C, C26G, A27C, G30U, A31C
DNA 1: CAATCTGAATTCCGGTCTCCC
DNA 2: TGGTGGCTACGACGGGATT
B13: UUACGAU (DNA:RNA)
RNA: B6 RNA with G25U, C26U, C29G, G30A, A31U
DNA 1: CAATCTGAATTCCGGTCTCCC
DNA 2: TGGTGGCTACGACGGGATT
B14: AUGCGAC (DNA:RNA)
RNA: B6 RNA with G25A, C26U, A27G, C29G, G30A, A31C
DNA 1: CAATCTGAATTCCGGTCTCCC
DNA 2: TGGTGGCTACGACGGGATT
B15: CUCGCGA (DNA:RNA)
RNA: B6 RNA with G25C, C26U, A27C, C28G
DNA 1: CAATCTGAATTCCGGTCTCCC
DNA 2: TGGTGGCTACGACGGGATT
B16: UCCGAUG (DNA:RNA)
RNA: B1 RNA with A26C, U27C, U28G, U29A, C30U
DNA 1: CAATCTGAATTCCGGTCTCCC
DNA 2: TGGTGGCTACGACGGGATT
B17: UGGCACU (DNA:RNA)
RNA: B1 RNA with A26G, U27G, U28C, U29A, G31U
DNA 1: CAATCTGAATTCCGGTCTCCC
DNA 2: TGGTGGCTACGACGGGATT
B18: UUGACUU (DNA:RNA)
RNA: B6 RNA with G25U, C26U, A27G, C28A, G30U, A31U
DNA 1: CAATCTGAATTCCGGTCTCCC
DNA 2: TGGTGGCTACGACGGGATT
B19: GGGAGGA (DNA:RNA)
RNA: B6 RNA with C26G, A27G, C28A, C29G
DNA 1: CAATCTGAATTCCGGTCTCCC
DNA 2: TGGTGGCTACGACGGGATT
B20: GUUGUAC (DNA:RNA)
RNA: B1 RNA with U25G, A26U, U28G, C30A, G31C
DNA 1: CAATCTGAATTCCGGTCTCCC
DNA 2: TGGTGGCTACGACGGGATT
B21: GCAAUCA (DNA:RNA)
RNA: B6 RNA with C28A, C29U, G30C
DNA 1: CAATCTGAATTCCGGTCTCCC
DNA 2: TGGTGGCTACGACGGGATT
B22: GGCAGAU (DNA:RNA)
RNA: B6 RNA with C26G, A27C, C28A, C29G, G30A, A31U
DNA 1: CAATCTGAATTCCGGTCTCCC
DNA 2: TGGTGGCTACGACGGGATT
B23: GGAGCGA (DNA:RNA)
RNA: B6 RNA with C26G, C28G
DNA 1: CAATCTGAATTCCGGTCTCCC
DNA 2: TGGTGGCTACGACGGGATT
B24: UGGACGG (DNA:RNA)
RNA: B6 RNA with G25U, C26G, A27G, C28A, A31G
DNA 1: CAATCTGAATTCCGGTCTCCC
DNA 2: TGGTGGCTACGACGGGATT
B25: GGCGUCC (DNA:RNA)
RNA: B1 RNA with U25G, A26G, U27C, U28G, G31C
DNA 1: CAATCTGAATTCCGGTCTCCC
DNA 2: TGGTGGCTACGACGGGATT
B26: CGCGUUC (DNA:RNA)
RNA: B1 RNA with U25C, A26G, U27C, U28G, C30U, G31C
DNA 1: CAATCTGAATTCCGGTCTCCC
DNA 2: TGGTGGCTACGACGGGATT
B27: UACUUGG (DNA:RNA)
RNA: B1 RNA with U27C, C30G
DNA 1: CAATCTGAATTCCGGTCTCCC
DNA 2: TGGTGGCTACGACGGGATT
B28: CAAUUUC (DNA:RNA)
RNA: B1 RNA with U25C, U27A, C30U, G31C
DNA 1: CAATCTGAATTCCGGTCTCCC
DNA 2: TGGTGGCTACGACGGGATT
B29: AACCUCU (DNA:RNA)
RNA: B1 RNA with U25A, U27C, U28C, G31U
DNA 1: CAATCTGAATTCCGGTCTCCC
DNA 2: TGGTGGCTACGACGGGATT
B30: ACUAAGG (DNA:RNA)
RNA: B6 RNA with G25A, A27U, C28A, C29A, A31G
DNA 1: CAATCTGAATTCCGGTCTCCC
DNA 2: TGGTGGCTACGACGGGATT
B31: GAUGCGG (DNA:RNA)
RNA: B6 RNA with C26A, A27U, C28G, A31G
DNA 1: CAATCTGAATTCCGGTCTCCC
DNA 2: TGGTGGCTACGACGGGATT

Residue numbers refer to the chain shown, from its start. This is one part of the list.

The experiment deals with T1, RBFOX1 RRM (Homo sapiens, UniProt Q9NWB1 109-208).
T1 sequence: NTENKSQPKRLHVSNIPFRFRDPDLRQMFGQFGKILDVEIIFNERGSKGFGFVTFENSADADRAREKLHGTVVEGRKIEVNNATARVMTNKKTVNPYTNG
In words: EMSA; HiTS-Eq, 1 nM pool, 10 min; buffer printed only for the single-RNA assays: 10 mM Tris pH 7.5, 150 mM NaCl, 3.4 mM EDTA, 0.001% NP-40, 30 C. The settings on record: tags: His6 N-terminal (pET28a); label: 5' 32P. The essentials:
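A pool of RNA with 7 randomized nucleotides, 5′-radiolabelled and with DNA-annealed flanks, was equilibrated at 1 nM for 10 min in 50 µL with purified RbFox RRM, wild type or mutant, across increasing protein concentrations. Free RNA was separated by 8% native PAGE, excised, reverse-transcribed, barcoded by PCR and sequenced. Relative association constants were obtained from read-count changes of each RNA species versus the control reaction and normalised to the cognate motif.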
(Mobility shift assays separate free from complexed probe on a gel.)
As for B1, the binding signal was 0.0112 KA relative to UGCAUGU.

Regarding B2, the binding signal is 0.0149 KA relative to UGCAUGU.

Consider B3, for which the binding signal was 0.0106 KA relative to UGCAUGU.

Take B4: the binding signal was 0.0211 KA relative to UGCAUGU.

For B5, the binding signal is 0.00657 KA relative to UGCAUGU.

In the case of B6, the binding signal was 0.0124 KA relative to UGCAUGU.

Take B7: the binding signal was 0.0032 KA relative to UGCAUGU.

On to B8, for which the binding signal was 0.021 KA relative to UGCAUGU.

With B9, the binding signal is 0.00186 KA relative to UGCAUGU.

For B10, the binding signal was 0.012 KA relative to UGCAUGU.

As to B11, the binding signal was 0.0135 KA relative to UGCAUGU.

As for B12, the binding signal was 0.00892 KA relative to UGCAUGU.

As to B13, the binding signal was 0.0103 KA relative to UGCAUGU.

B14: the binding signal was 0.00489 KA relative to UGCAUGU.

In the case of B15, the binding signal is 0.0103 KA relative to UGCAUGU.

For B16, the binding signal is 0.015 KA relative to UGCAUGU.

As to B17, the binding signal was 0.0174 KA relative to UGCAUGU.

B18: the binding signal is 0.017 KA relative to UGCAUGU.

Turning to B19, the binding signal was 0.0101 KA relative to UGCAUGU.

As for B20, the binding signal was 0.018 KA relative to UGCAUGU.

In the case of B21, the binding signal was 0.00342 KA relative to UGCAUGU.

As for B22, the binding signal is 0.00732 KA relative to UGCAUGU.

For the molecule B23, the binding signal was 0.0139 KA relative to UGCAUGU.

As to B24, the binding signal is 0.0246 KA relative to UGCAUGU.

Consider B25, for which the binding signal is 0.0185 KA relative to UGCAUGU.

Turning to B26, the binding signal was 0.0164 KA relative to UGCAUGU.

For the molecule B27, the binding signal was 0.0131 KA relative to UGCAUGU.

As to B28, the binding signal was 0.00118 KA relative to UGCAUGU.

Take B29: the binding signal is 0.00119 KA relative to UGCAUGU.

With B30, the binding signal is 0.00769 KA relative to UGCAUGU.

On to B31, for which the binding signal is 0.0137 KA relative to UGCAUGU.
